Here are results for 32 sequences from the supplement of paper PMC12645437, “Orthogonal IMiD-Degron Pairs Induce Selective Protein Degradation in Cells” (ACS Chemical Biology, 2025).

The list shows a part of the results.
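Note: jurkat cells carrying a lentiviral library of mutant zinc finger degrons fused to EGFP plus mCherry, mCherry+ cells FACS sorted, degron abundance counted by next-generation sequencing.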

In this test the target is no compound (DMSO). Kind of test: log2 fold change of degron read counts, EGFP-low vs EGFP+ sorted cells; higher = lower degron-EGFP level without compound (poor expression or instability). The following applies: compound: DMSO control; 18 h.
As to FRCPVCGAWFTQKGNLLRHIKL, the “log2 fold change of degron read counts” value came to 1.09.
Consider LRCPICGFTCTQKGNLLRHIKL, for which the “log2 fold change of degron read counts” value turned out to be 0.168.
As for LKCPICGFGCTQKGNLLRHIKL, the figure is 0.761; as for FKCNQCGATFTQKGNLLRHIKL, -0.679; as for FQCDQCGAHFTQKGNLLRHIKL, -1.78.
Regarding FYCNQCGRMFTQKGNLLRHIKL, the “log2 fold change of degron read counts” value was determined as 0.132.
As for LHCNQCGFPCTQKGNLLRHIKL, the figure is 0.453.
As for FLCSVCGHDFTQKGNLLRHIKL, the figure is -0.743; as for FQCEQCGANFTQKGNLLRHIKL, -1.88.
For FFCDICGAMFTQKGNLLRHIKL the value was -0.568.
Turning to FSCNICGAFFTQKGNLLRHIKL, the “log2 fold change of degron read counts” value is 0.216.
Turning to FYCEICGRSFTQKGNLLRHIKL, the “log2 fold change of degron read counts” value is -2.72.
For FDCEVCGARFTQKGNLLRHIKL the value was -1.47; for FICNVCGARFTQKGNLLRHIKL, -1.17.
For FLCEQCGACFTQKGNLLRHIKL the value was -1.68; for FVCNQCGHHFTQKGNLLRHIKL, -0.993; for FLCPICGAWFTQKGNLLRHIKL, 0.997.
For FWCNQCGRDFTQKGNLLRHIKL the value was -0.375; for FSCPVCGAWFTQKGNLLRHIKL, 0.206; for LGCEICGFQCTQKGNLLRHIKL, 0.246.
For the sequence FRCSVCGHEFTQKGNLLRHIKL, the “log2 fold change of degron read counts” value is -1.39.
For the sequence LMCEICGFKCTQKGNLLRHIKL, the “log2 fold change of degron read counts” value was -0.412.
Turning to FWCDVCGAGFTQKGNLLRHIKL, the “log2 fold change of degron read counts” value was -1.15.
Consider FCCNQCGRFFTQKGNLLRHIKL, for which the “log2 fold change of degron read counts” value came to 0.968.
For FRCSVCGHNFTQKGNLLRHIKL the value was 0.0813; for FGCPICGHGFTQKGNLLRHIKL, -0.0704.
As for FWCNICGAEFTQKGNLLRHIKL, the figure is 0.305; as for FHCPICGHHFTQKGNLLRHIKL, 0.0381.
For LFCPICGFSCTQKGNLLRHIKL the value was 1.
Turning to FLCSVCGHIFTQKGNLLRHIKL, the “log2 fold change of degron read counts” value amounted to 0.793.
As for FKCNICGAWFTQKGNLLRHIKL, the figure is 0.291; as for FTCNQCGHTFTQKGNLLRHIKL, -0.814.
